{
  "source": "the supplement of paper PMC11348887",
  "note": "Structures can show the parent of a compound that is named as a salt. This is one part of the list. Rule as the data show it: active = -2 or less and inactive = the rest. Many values rest on one well or one pass, so single values are uncertain.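 Also: nuclei counted from DAPI counterstain by automated high-content image analysis, four fields per well at ×20 in 384-well plates, with sequential b-score then z-score normalization.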",
  "data": [
    {"test_system": "hPSC-derived cortical neurons (WA09)", "test": "nuclei number (viability) z-score; higher = more surviving cells", "conditions": "5 µM; treatment: days 7-14 after plating, readout day 21", "values": [
      {"molecule": "CC1(C)S[C@@H]2[C@H](NC(=O)[C@H](NC(=O)N3CCN(S(C)(=O)=O)C3=O)c3ccccc3)C(=O)N2[C@H]1C(=O)O", "note": "[Mezlocillin Sodium]", "nuclei number (z-score)": "inactive: -0.0138"},
      {"molecule": "Cn1c(=O)cc(N2CCC[C@@H](N)C2)n(Cc2ccccc2C#N)c1=O", "note": "[Alogliptin]", "nuclei number (z-score)": "inactive: -0.743"},
      {"molecule": "CC1=C(CC(=O)O)c2cc(F)ccc2/C1=C\\c1ccc([S+](C)[O-])cc1", "note": "(centres undefined) [Sulindac]", "nuclei number (z-score)": "inactive: 0.607"},
      {"molecule": "C=CC(=O)Nc1ccc2ncnc(Nc3ccc(OCc4cccc(F)c4)c(Cl)c3)c2c1", "nuclei number (z-score)": "inactive: -1.25"},
      {"molecule": "CC(=O)N1CCN(CCOc2ccc(C3CCN(C4=Nn5c(nnc5C(F)(F)F)CC4)CC3)cc2)CC1", "nuclei number (z-score)": "inactive: -0.23"},
      {"molecule": "C=CC(=O)N1CCC[C@@H](n2nc(-c3ccc(Oc4ccccc4)cc3)c3c(N)ncnc32)C1", "nuclei number (z-score)": "inactive: 0.247"},
      {"molecule": "O=C(O)c1ccccc1C(=O)Nc1ccc(-c2ccccc2)cc1", "note": "[Kartogenin]", "nuclei number (z-score)": "inactive: 0.027"},
      {"molecule": "C[C@@H]1CN(CC(=O)Nc2ccc3c(c2)Cc2cccc(-c4cc(=O)cc(N5CCOCC5)o4)c2S3)C[C@H](C)O1", "nuclei number (z-score)": "inactive: 0.689"},
      {"molecule": "CCC[C@H](NC(=O)[C@@H]1[C@H]2CCC[C@H]2CN1C(=O)[C@@H](NC(=O)[C@@H](NC(=O)c1cnccn1)C1CCCCC1)C(C)(C)C)C(=O)C(=O)NC1CC1", "note": "[Telaprevir (VX-950)]", "nuclei number (z-score)": "inactive: 0.377"},
      {"molecule": "Cc1noc(NS(=O)(=O)c2ccc(N)cc2)c1C", "note": "[Sulfisoxazole]", "nuclei number (z-score)": "inactive: 0.537"},
      {"molecule": "CCc1cccc2c3c([nH]c12)C(CC)(CC(=O)O)OCC3", "note": "(centres undefined) [Etodolac]", "nuclei number (z-score)": "inactive: 0.599"},
      {"molecule": "Cc1nc(N)sc1-c1ccnc(Nc2ccc(N3CCOCC3)cc2)n1", "nuclei number (z-score)": "inactive: 1.75"},
      {"molecule": "CN1C(=O)[C@@H](NC(=O)c2cc(Cc3ccccc3)on2)COc2ccccc21", "nuclei number (z-score)": "inactive: -0.452"},
      {"molecule": "C[C@]12CC[C@@H]3c4ccc(O)cc4CC[C@H]3[C@@H]1C[C@@H](O)[C@@H]2O", "note": "[Estriol]", "nuclei number (z-score)": "inactive: 1.47"},
      {"molecule": "CNC(=O)[C@H](Cc1ccccc1)NC(=O)[C@H](CC(C)C)[C@H](CSc1cccs1)C(=O)NO", "note": "[Batimastat (BB-94)]", "nuclei number (z-score)": "inactive: 0.685"},
      {"molecule": "CCOC(=O)[C@H](CCc1ccccc1)N[C@@H](C)C(=O)N1CCC[C@H]1C(=O)O", "note": "[Enalapril Maleate]", "nuclei number (z-score)": "inactive: 0.266"},
      {"molecule": "C[C@H](NC(=O)[C@@H](Cc1ccc2ccccc2c1)NC(=O)[C@@H](C)N)C(=O)N[C@@H](Cc1c[nH]c2ccccc12)C(=O)N[C@H](Cc1ccccc1)C(=O)N[C@@H](CCCCN)C(N)=O", "nuclei number (z-score)": "inactive: -0.379"},
      {"molecule": "COc1ccc2[nH]c([S+]([O-])Cc3ncc(C)c(OC)c3C)nc2c1", "note": "(centres undefined) [Omeprazole]", "nuclei number (z-score)": "active: -3.49"},
      {"molecule": "COc1nc(-c2ccc3c(c2)OCO3)n(-c2ccc(NC(=O)CSc3ccccc3)cc2)n1", "note": "[SecinH3]", "nuclei number (z-score)": "inactive: 0.921"},
      {"molecule": "CCS(=O)(=O)Nc1ccc2c(c1)/C(=C(/Nc1ccc(CN3CCCCC3)cc1)c1ccccc1)C(=O)N2", "note": "[Hesperadin]", "nuclei number (z-score)": "active: -4.28"},
      {"molecule": "O=C(Nc1ccc(-c2ccnc(Nc3ccc(N4CCOCC4)cc3)n2)cc1)C1CCCN1", "note": "(centres undefined)", "nuclei number (z-score)": "inactive: 4.65"},
      {"molecule": "O=S(=O)(O)CCCS(=O)(=O)O", "note": "[Eprodisate disodium]", "nuclei number (z-score)": "inactive: 1.07"},
      {"molecule": "NC(=S)N/N=C/c1ncccc1N", "note": "[Triapine]", "nuclei number (z-score)": "inactive: -0.17"},
      {"molecule": "Nc1cccc2c1CN(C1CCC(=O)NC1=O)C2=O", "note": "(centres undefined) [Lenalidomide (CC-5013)]", "nuclei number (z-score)": "inactive: 1.58"},
      {"molecule": "C=CC1=C(C(=O)O)N2C(=O)[C@@H](NC(=O)/C(=N\\OCC(=O)O)c3csc(N)n3)[C@H]2SC1", "note": "[Cefixime]", "nuclei number (z-score)": "inactive: 0.412"},
      {"molecule": "COc1ccc(CNC(=O)Nc2ncc([N+](=O)[O-])s2)cc1", "nuclei number (z-score)": "inactive: 0.21"},
      {"molecule": "Cn1c2ccccc2c2c3c(c4c5ccccc5n(CCC#N)c4c21)CNC3=O", "nuclei number (z-score)": "inactive: 0.586"},
      {"molecule": "OCCOCCN1CCN(C(c2ccccc2)c2ccc(Cl)cc2)CC1", "note": "(centres undefined) [Hydroxyzine 2HCl]", "nuclei number (z-score)": "inactive: -1.73"},
      {"molecule": "O=C(NS(=O)(=O)c1ccc(Br)s1)c1ccc(Cl)cc1Cl", "note": "[Tasisulam]", "nuclei number (z-score)": "inactive: 0.876"},
      {"molecule": "C/C(=N\\NC(=O)c1cccc(S(=O)(=O)N2CCOCC2)c1)c1cc(Cl)ccc1O", "nuclei number (z-score)": "inactive: 0.568"},
      {"molecule": "[I-].[K+]", "note": "[Potassium Iodide]", "nuclei number (z-score)": "inactive: 0.673"},
      {"molecule": "Cc1ccccc1N1C(=O)c2cc(S(N)(=O)=O)c(Cl)cc2NC1C", "note": "(centres undefined) [Metolazone]", "nuclei number (z-score)": "inactive: 0.606"},
      {"molecule": "Cc1cc(-n2c(=O)[nH]c(=O)n(C)c2=O)ccc1Oc1ccc(SC(F)(F)F)cc1", "note": "[Toltrazuril]", "nuclei number (z-score)": "inactive: 0.671"},
      {"molecule": "CN(CCOc1ccc(CC2SC(=O)NC2=O)cc1)c1ccccn1", "note": "(centres undefined) [Rosiglitazone]", "nuclei number (z-score)": "inactive: -0.371"},
      {"molecule": "CN(CCOc1ccc(CC2SC(=O)NC2=O)cc1)c1ccccn1", "note": "(centres undefined) [Rosiglitazone maleate]", "nuclei number (z-score)": "inactive: -0.479"},
      {"molecule": "CN(CCOc1ccc(CC2SC(=O)NC2=O)cc1)c1ccccn1", "note": "(centres undefined) [Rosiglitazone HCl]", "nuclei number (z-score)": "inactive: 7.15"},
      {"molecule": "O=C(NCC(=O)N1CCCC1)Nc1ccc2cnccc2c1", "nuclei number (z-score)": "inactive: -0.106"},
      {"molecule": "CC(N)C12CC3CC(CC(C3)C1)C2", "note": "(centres undefined) [Rimantadine]", "nuclei number (z-score)": "inactive: -0.0964"},
      {"molecule": "COc1ccc(C[C@@H]2c3cc(OC)c(OC)cc3CC[N@+]2(C)CCC(=O)OCCCCCOC(=O)CC[N@@+]2(C)CCc3cc(OC)c(OC)cc3[C@H]2Cc2ccc(OC)c(OC)c2)cc1OC", "note": "[Cisatracurium Besylate]", "nuclei number (z-score)": "inactive: 0.843"},
      {"molecule": "CCOC(=O)c1c(C)n(C)c2ccc(O)cc12", "note": "[Mecarbinate]", "nuclei number (z-score)": "inactive: 0.143"},
      {"molecule": "Fc1cc(-c2cccc3ncc(-c4cnn(C5CCNCC5)c4)nc23)cc(F)c1CN1CCOCC1", "nuclei number (z-score)": "active: -7.38"},
      {"molecule": "O=C(O)CC[C@@H](O)C(=O)O", "note": "[Disodium (R)-2-Hydroxyglutarate]", "nuclei number (z-score)": "inactive: 0.555"},
      {"molecule": "Brc1c(NC2=NCCN2)ccc2nccnc12", "note": "[Brimonidine Tartrate]", "nuclei number (z-score)": "inactive: 0.0554"},
      {"molecule": "CN(C)CCOC(=O)COc1ccc(Cl)cc1", "note": "[Meclofenoxate (Centrophenoxine) HCl]", "nuclei number (z-score)": "inactive: 0.172"},
      {"molecule": "C[C@H](Oc1cc(-c2cnn(C3CCNCC3)c2)cnc1N)c1c(Cl)ccc(F)c1Cl", "note": "[(S)-crizotinib]", "nuclei number (z-score)": "inactive: -1.21"},
      {"molecule": "CCCCCCCCCC(=O)N[C@H]1[C@H](Oc2c3cc4cc2Oc2ccc(cc2Cl)[C@@H](O[C@@H]2O[C@H](CO)[C@@H](O)[C@H](O)[C@H]2NC(C)=O)[C@@H]2NC(=O)[C@H](NC(=O)[C@@H]4NC(=O)[C@H]4NC(=O)[C@@H](Cc5ccc(c(Cl)c5)O3)NC(=O)[C@H](N)c3ccc(O)c(c3)Oc3cc(O)cc4c3)c3ccc(O)c(c3)-c3c(OC4O[C@H](CO)[C@@H](O)[C@H](O)[C@@H]4O)cc(O)cc3[C@@H](C(=O)O)NC2=O)O[C@H](CO)[C@@H](O)[C@@H]1O", "note": "(some centres undefined) [Teicoplanin]", "nuclei number (z-score)": "inactive: 11.2"},
      {"molecule": "NCc1c[nH]c(=S)n1[C@@H]1CCc2c(F)cc(F)cc2C1", "note": "[(R)-Nepicastat HCl]", "nuclei number (z-score)": "inactive: -0.14"},
      {"molecule": "OC(CCN1CCCCC1)(c1ccccc1)C1CCCCC1", "note": "(centres undefined) [Trihexyphenidyl hydrochloride]", "nuclei number (z-score)": "inactive: 0.68"},
      {"molecule": "Cc1ccc2c(Cl)cc(Cl)c(O)c2n1", "note": "[Chlorquinaldol]", "nuclei number (z-score)": "inactive: 1.03"},
      {"molecule": "N=C(N)N/N=C/c1c(Cl)cccc1Cl", "note": "[Guanabenz Acetate]", "nuclei number (z-score)": "inactive: -0.528"},
      {"molecule": "CN(C)c1ccc2c(c1)Sc1cc(N(C)C)ccc1N2", "note": "[TRx0237 (LMTX) mesylate]", "nuclei number (z-score)": "active: -6.09"},
      {"molecule": "O=C(OCc1ccccc1)c1ccccc1", "note": "[Benzyl benzoate]", "nuclei number (z-score)": "inactive: 0.894"},
      {"molecule": "COc1ccc(C(=O)NCc2ccc(OCCN(C)C)cc2)cc1OC", "note": "[Itopride hydrochloride]", "nuclei number (z-score)": "inactive: -0.676"},
      {"molecule": "Cc1cc(Nc2nc(N[C@@H](C)c3ncc(F)cn3)ncc2Cl)[nH]n1", "nuclei number (z-score)": "inactive: 0.635"},
      {"molecule": "COC[C@H](NC(=O)c1cnc(C)s1)C(=O)N[C@@H](COC)C(=O)N[C@@H](Cc1ccccc1)C(=O)[C@@]1(C)CO1", "note": "[Oprozomib (ONX 0912)]", "nuclei number (z-score)": "active: -4.77"},
      {"molecule": "CCCCC(=O)N(Cc1ccc(-c2ccccc2-c2nnn[nH]2)cc1)[C@H](C(=O)O)C(C)C.CCOC(=O)[C@H](C)C[C@@H](Cc1ccc(-c2ccccc2)cc1)NC(=O)CCC(=O)O", "nuclei number (z-score)": "inactive: 0.478"},
      {"molecule": "OC[C@H]1O[C@@H](O[C@@H]2[C@@H](CO)OC(O)(CO)[C@H]2O)[C@H](O)[C@@H](O)[C@H]1O", "note": "(mixture of isomers) [Lactulose]", "nuclei number (z-score)": "inactive: 0.44"},
      {"molecule": "CC[C@@H]1/C=C(\\C)C[C@H](C)C[C@H](OC)[C@H]2O[C@@](O)(C(=O)C(=O)N3CCCC[C@H]3C(=O)O[C@H](/C(C)=C/[C@@H]3CC[C@H](Cl)[C@H](OC)C3)[C@H](C)[C@@H](O)CC1=O)[C@H](C)C[C@@H]2OC", "note": "[Pimecrolimus]", "nuclei number (z-score)": "inactive: -0.685"},
      {"molecule": "CCC1(c2c[nH]cn2)Cc2ccccc2C1", "note": "[Atipamezole hydrochloride]", "nuclei number (z-score)": "inactive: -0.442"},
      {"molecule": "CCC1(c2c[nH]cn2)Cc2ccccc2C1", "note": "[Atipamezole]", "nuclei number (z-score)": "inactive: 0.651"},
      {"molecule": "CN(C)[C@@H]1C(O)=C(C(N)=O)C(=O)[C@@]2(O)C(O)=C3C(=O)c4c(O)ccc(Cl)c4[C@@H](O)[C@H]3C[C@@H]12", "note": "[Demeclocycline HCl]", "nuclei number (z-score)": "inactive: 0.712"},
      {"molecule": "O=C(O)CC1CC(c2ccccc2)=NO1", "note": "(centres undefined)", "nuclei number (z-score)": "inactive: -0.0578"},
      {"molecule": "CCN(c1cc(-c2ccc(CN3CCOCC3)cc2)cc(C(=O)NCc2c(C)cc(C)[nH]c2=O)c1C)C1CCOCC1", "nuclei number (z-score)": "inactive: 0.819"},
      {"molecule": "Cn1c([N+](=O)[O-])cnc1COC(N)=O", "note": "[Ronidazole]", "nuclei number (z-score)": "inactive: -1.01"}
    ]}
  ]
}
